A collection of fitness landscapes (doi:10.1038/s41467-024-54723-y)
Over roughly 18,000 sequences, “TetR repression strength (sort-seq, GFP reporter)” has its median near 0.23; the highest 2% begin near 0.68. This is one part of the list.

What follows are sequences tested against TetR (class B, Tn10) (UniProt P04483) (assay: TetR repression strength (sort-seq, GFP reporter) (relative to tetO2 = 1); higher = stronger repression). Settings: E. coli.
Outline: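 Repression strength was calculated by subtracting the read-weighted mean bin from the top bin index plus one and dividing by the unaltered operator's value. The plasmid library was low-copy in E. coli SIG10-MAX, with eight randomized operator positions between a constitutive promoter and sfGFP and constitutive TetR. Cultures grew 5 h at 37 °C in LB containing 50 µg/mL chloramphenicol before 10^6 cells were sorted by FACS into 13 fluorescence bins, each sequenced on Illumina. Three independent transformations were averaged for members having ≥30 reads in all replicates and a CV ≤0.5.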

Sequence of UniProt P04483 (P04483 whole entry): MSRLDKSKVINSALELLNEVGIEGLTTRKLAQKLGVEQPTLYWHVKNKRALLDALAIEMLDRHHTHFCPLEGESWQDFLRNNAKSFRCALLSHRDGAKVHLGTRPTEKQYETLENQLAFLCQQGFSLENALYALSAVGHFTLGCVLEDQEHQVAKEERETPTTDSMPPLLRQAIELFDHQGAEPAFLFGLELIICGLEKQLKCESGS

Going from TCCCCACGAGTGAACGAGA to TCCCTTTGAGTCCGGGAGA, the TetR repression strength falls from 0.433 to 0.253.

Compared with TCCCTTCTAGTATGAGAGA, TCCCGGGAAGTAGGTGAGA is lower in TetR repression strength: 0.406 for the first, 0.209 for the second.

First: TCCCCAGAAGTGGGAGAGA
Second: TCCCTACAAGTCGCAGAGA
The TetR repression strength of the first is lower: 0.125 for the first, 0.217 for the second.

Compared with TCCCCGAAAGTTTGTGAGA, TCCCTATTAGTGCTAGAGA is higher in TetR repression strength: 0.216 for the first, 0.466 for the second.

Going from TCCCACTAAGTATCTGAGA to TCCCCATCAGTCCGCGAGA, the TetR repression strength rises from 0.274 to 0.371.

Going from TCCCGCTGAGTAGCTGAGA to TCCCAATAAGTTCTAGAGA, the TetR repression strength falls from 0.385 to 0.306.

Going from TCCCCAAGAGTAGACGAGA to TCCCTTTTAGTGGGTGAGA, the TetR repression strength rises from 0.17 to 0.26.

Going from TCCCTGGGAGTTGCGGAGA to TCCCAAATAGTGGTAGAGA, the TetR repression strength falls from 0.467 to 0.284.

First: TCCCAATTAGTCTAGGAGA
Second: TCCCACGTAGTGATAGAGA
The TetR repression strength of the first is lower: 0.281 for the first, 0.354 for the second.

Going from TCCCGTAAAGTGGCCGAGA to TCCCCCAGAGTGGATGAGA, the TetR repression strength rises from 0.101 to 0.216.

Going from TCCCGTATAGTTAGGGAGA to TCCCTCTAAGTAAGCGAGA, the TetR repression strength rises from 0.018 to 0.17.

Going from TCCCGTCCAGTGACCGAGA to TCCCGGAAAGTCTGAGAGA, the TetR repression strength rises from 0.21 to 0.238.

First: TCCCATAAAGTTTGCGAGA
Second: TCCCGGGTAGTTGAGGAGA
The TetR repression strength of the first is higher: 0.25 for the first, 0.213 for the second.

Compared with TCCCGGAAAGTAGCGGAGA, TCCCGCGCAGTCGCAGAGA is higher in TetR repression strength: 0.175 for the first, 0.226 for the second.

Compared with TCCCGAGTAGTGATGGAGA, TCCCGCCCAGTTATAGAGA is higher in TetR repression strength: 0.153 for the first, 0.351 for the second.

Compared with TCCCCTAGAGTGGATGAGA, TCCCACGTAGTGAGGGAGA is higher in TetR repression strength: 0.14 for the first, 0.241 for the second.

Going from TCCCATTAAGTATTAGAGA to TCCCCTCCAGTGACAGAGA, the TetR repression strength rises from 0.438 to 0.521.

Going from TCCCAAGGAGTAATCGAGA to TCCCTGTCAGTGTAAGAGA, the TetR repression strength rises from 0.104 to 0.426.

Compared with TCCCCAGTAGTCAGTGAGA, TCCCGTCCAGTTCGTGAGA is lower in TetR repression strength: 0.247 for the first, 0.096 for the second.

Compared with TCCCAAAGAGTATCAGAGA, TCCCTGCAAGTTGTTGAGA is higher in TetR repression strength: 0.111 for the first, 0.228 for the second.

Going from TCCCGGATAGTGTAGGAGA to TCCCGGTCAGTCACCGAGA, the TetR repression strength rises from 0.373 to 0.669.

Compared with TCCCCTGGAGTGGTAGAGA, TCCCGGCGAGTACCCGAGA is higher in TetR repression strength: 0.109 for the first, 0.218 for the second.

Going from TCCCGGATAGTTCGAGAGA to TCCCCGCGAGTGTCGGAGA, the TetR repression strength rises from 0.0488 to 0.14.

First: TCCCTATCAGTAAGTGAGA
Second: TCCCCGTAAGTAAGCGAGA
The TetR repression strength of the first is higher: 0.545 for the first, 0.25 for the second.

Going from TCCCGCGGAGTAGTCGAGA to TCCCGGCTAGTTGAGGAGA, the TetR repression strength rises from 0.148 to 0.23.

Going from TCCCTTTAAGTTCAGGAGA to TCCCAACCAGTCATGGAGA, the TetR repression strength falls from 0.211 to 0.159.

First: TCCCAACAAGTTCTCGAGA
Second: TCCCTGATAGTTGATGAGA
The TetR repression strength of the first is lower: 0.493 for the first, 0.51 for the second.

Compared with TCCCAGGTAGTGCTGGAGA, TCCCCCGTAGTATAAGAGA is higher in TetR repression strength: 0.275 for the first, 0.384 for the second.

First: TCCCTGCCAGTCTGGGAGA
Second: TCCCCACAAGTACAAGAGA
The TetR repression strength of the first is lower: 0.111 for the first, 0.465 for the second.

Going from TCCCTATGAGTGTAAGAGA to TCCCACGTAGTCCGGGAGA, the TetR repression strength falls from 0.162 to 0.0837.

Going from TCCCGGTCAGTGTTAGAGA to TCCCCGCAAGTCGAAGAGA, the TetR repression strength falls from 0.609 to 0.294.

Going from TCCCTACGAGTCGTGGAGA to TCCCGGCGAGTGTAGGAGA, the TetR repression strength falls from 0.334 to 0.315.

Going from TCCCCGAGAGTGGGCGAGA to TCCCCAGAAGTCCACGAGA, the TetR repression strength rises from 0.17 to 0.256.

Going from TCCCCGTAAGTAAGGGAGA to TCCCCAATAGTCCACGAGA, the TetR repression strength rises from 0.22 to 0.316.

First: TCCCGTGAAGTGGGGGAGA
Second: TCCCAAGCAGTCTGCGAGA
The TetR repression strength of the first is lower: 0.273 for the first, 0.335 for the second.

Going from TCCCAACCAGTGAAGGAGA to TCCCAGCGAGTCGGGGAGA, the TetR repression strength rises from 0 to 0.099.

Compared with TCCCTAGGAGTCATGGAGA, TCCCACGCAGTGTGAGAGA is higher in TetR repression strength: 0.127 for the first, 0.386 for the second.

First: TCCCGTTTAGTTCGCGAGA
Second: TCCCTGCGAGTTGTGGAGA
The TetR repression strength of the first is higher: 0.208 for the first, 0.0709 for the second.

Compared with TCCCTGAGAGTACGAGAGA, TCCCAGAAAGTCGGGGAGA is lower in TetR repression strength: 0.231 for the first, 0.0115 for the second.

Going from TCCCTGCGAGTTGATGAGA to TCCCGCGAAGTGGCTGAGA, the TetR repression strength rises from 0.158 to 0.178.

Compared with TCCCAACGAGTCCGTGAGA, TCCCCGTAAGTGAGAGAGA is lower in TetR repression strength: 0.183 for the first, 0.149 for the second.

First: TCCCCTTCAGTCCCAGAGA
Second: TCCCCCCGAGTTCGCGAGA
The TetR repression strength of the first is higher: 1.12 for the first, 0.207 for the second.

Compared with TCCCAGACAGTTCACGAGA, TCCCGTTGAGTTGAGGAGA is lower in TetR repression strength: 0.151 for the first, 0.119 for the second.

Compared with TCCCGCGGAGTAAGGGAGA, TCCCGTGTAGTGATGGAGA is lower in TetR repression strength: 0.252 for the first, 0.222 for the second.

Compared with TCCCCCAGAGTGCGGGAGA, TCCCGCGGAGTCCGCGAGA is higher in TetR repression strength: 0.16 for the first, 0.181 for the second.

Going from TCCCCGCCAGTCCGGGAGA to TCCCGAGTAGTGGGTGAGA, the TetR repression strength rises from 0.232 to 0.256.

Compared with TCCCTCATAGTGAGCGAGA, TCCCGACGAGTGTCGGAGA is higher in TetR repression strength: 0.0621 for the first, 0.249 for the second.

Going from TCCCTCTTAGTGGTAGAGA to TCCCAACCAGTCATTGAGA, the TetR repression strength falls from 0.28 to 0.27.

Going from TCCCGGTCAGTGCTAGAGA to TCCCTCCAAGTGGCGGAGA, the TetR repression strength falls from 0.638 to 0.113.

Going from TCCCGTTTAGTTTTGGAGA to TCCCCTACAGTAATTGAGA, the TetR repression strength falls from 0.55 to 0.19.

First: TCCCTTAGAGTTTTCGAGA
Second: TCCCGCTTAGTGACTGAGA
The TetR repression strength of the first is lower: 0.176 for the first, 0.291 for the second.

Going from TCCCCGCCAGTCCCTGAGA to TCCCGTACAGTTATTGAGA, the TetR repression strength falls from 0.433 to 0.398.

First: TCCCAATCAGTTAGTGAGA
Second: TCCCTTGTAGTCGTCGAGA
The TetR repression strength of the first is higher: 0.419 for the first, 0.117 for the second.

Compared with TCCCTAGAAGTAAGAGAGA, TCCCATAAAGTTAGGGAGA is higher in TetR repression strength: 0.095 for the first, 0.368 for the second.

TCCCAACTAGTATAGGAGA and TCCCGATTAGTTGGGGAGA are the same in TetR repression strength: 0.235 for the first, 0.235 for the second.

Going from TCCCGGGAAGTTGGTGAGA to TCCCGGCTAGTCTCGGAGA, the TetR repression strength rises from 0.172 to 0.237.

First: TCCCGATTAGTTAGGGAGA
Second: TCCCTGCTAGTTTTTGAGA
The TetR repression strength of the first is lower: 0.178 for the first, 0.414 for the second.

First: TCCCGTTCAGTGATCGAGA
Second: TCCCACCGAGTGGGTGAGA
The TetR repression strength of the first is higher: 0.724 for the first, 0.207 for the second.

Compared with TCCCTGATAGTGTGAGAGA, TCCCAACGAGTACTCGAGA is lower in TetR repression strength: 0.266 for the first, 0.204 for the second.

Going from TCCCAGACAGTGGCTGAGA to TCCCACGTAGTGTACGAGA, the TetR repression strength rises from 0.193 to 0.291.

Going from TCCCACCGAGTCTTCGAGA to TCCCTTTGAGTTTAGGAGA, the TetR repression strength falls from 0.406 to 0.262.

Compared with TCCCTTGTAGTTAATGAGA, TCCCTACGAGTGGTAGAGA is higher in TetR repression strength: 0.289 for the first, 0.307 for the second.

First: TCCCATCGAGTTTGCGAGA
Second: TCCCAGTAAGTGATGGAGA
The TetR repression strength of the first is higher: 0.263 for the first, 0.226 for the second.

Compared with TCCCTGCCAGTTAGGGAGA, TCCCTTGCAGTGATAGAGA is higher in TetR repression strength: 0.298 for the first, 0.657 for the second.

Going from TCCCGGCCAGTAGTGGAGA to TCCCTGATAGTTTACGAGA, the TetR repression strength falls from 0.288 to 0.253.
